# The inconclusive results got no clear call from the source; some entries with a clear call stand among them for comparison. For part of these data: A potency beside an inconclusive call is a rough fit, not a confirmed value. For part of these data: “Side channel” marks fits to a control or component signal instead of the main read-out. Some compounds were tested as several samples or in several runs, with calls that do not always agree. Active and inactive are the calls of the source. Unless noted, calls come from the whole dose curve; as a rule, active = well fitted curve in either direction with a large enough effect (not every such curve was filed as active); inconclusive = small, poorly fitted or top-dose-only effect, or another doubt; inactive = flat fitted curve, though single readings scatter.
# How the values were obtained:
# [1] = NFAT Signaling Pathway (AID 444); settings: Jurkat NFAT-bla M1, carbachol, beta-lactamase ratio, 5 h; at 17.2 µM (top of the series) unless noted;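 note: carbachol stimulus at about its EC50 of 1 µM final; % is set by controls: 0 for no effect and ±100 for the full control effect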
# Summary of the method: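 Jurkat cells with NFAT-driven β-lactamase reporter and co-expressed M1 receptor, stimulated with carbachol (final 1 uM, ~EC50), compound titration, 5 h at 37 °C. CCF4 loaded 1 h at RT; 460/530 nm ratio gave %activity and AC50.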
# [2] = target: Mitogen-activated protein kinase 10 (Mus musculus) (UniProt Q61831); assay: JNK3 AlphaScreen Assay (AID 530); settings: JNK3 lysate, c-Jun phosphorylation; activity change, negative = inhibition: at 57.1 µM (top of the series);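 note: kinase came from lysate of stimulated human HepG2 cells; signal reports phosphorylation of biotinylated GST-cJun 1-79 at Ser73 with 10 µM ATP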; note: potency is the fitted concentration of half-maximal effect; for activity change, negative = inhibition: % is set by controls: 0 for no effect and ±100 for the full control effect
# Summary of the method: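 HepG2 lysate (IL-1b/TNFa pre-activated) + biotin-GST-cJun 1-79 + anti-pSer73 cJun; cpd titration, 15 min RT; ATP 10 uM start; Tris pH 7.6, MgCl2, DTT, vanadate; beads in EDTA buffer; AlphaScreen.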
# [3] = qHTS Assay for Identification of Small Molecule Agonists for Hypoxia Response Element Signaling Pathway (AID 914; active = well fitted activation curve with a large enough effect in the signal ratio, with a control signal flat, not every such curve was filed as active; inconclusive = small, poorly fitted or top-dose-only effect, or effect the other way, or a change in a side signal; the % refers to the signal ratio; note: potency is the fitted concentration of half-maximal effect; for activation: top concentration of the series differs between compounds; % of control where 0% means no effect); settings: ME-180 HRE-bla reporter, beta-lactamase ratio, CoCl2, 17 h; activation: active compounds read high
# Summary of the method: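 In Opti-MEM containing 0.5% dialyzed FBS and 10 mM HEPES, ME-180 HRE-bla cells received a compound titration and EC50 CoCl2. They were incubated 17 hours, then CCF4-loaded 2.5 hours at room temperature before ratio reading.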
# [4] = target: Ubiquitin carboxyl-terminal hydrolase 1 (Homo sapiens) (UniProt O94782); assay: Inhibitors of USP1/UAF1: Pilot qHTS (AID 504865; active = well fitted curve in the direction sought with a large enough effect; inconclusive = small, poorly fitted or top-dose-only effect, or another doubt; inactive = no such curve, though single readings can be large; an effect the other way counts as inactive or inconclusive; note: potency is the fitted concentration of half-maximal effect;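 note: rhodamine fluorescence freed from ubiquitin-rhodamine substrate followed over time; nearly all actives have a fitted effect of over 35% in size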; for activity change, negative = inhibition: top concentration of the series differs between compounds; % is set by controls: 0 for no effect and ±100 for the full control effect)
# Sequence of UniProt O94782 (O94782 whole entry, looked up): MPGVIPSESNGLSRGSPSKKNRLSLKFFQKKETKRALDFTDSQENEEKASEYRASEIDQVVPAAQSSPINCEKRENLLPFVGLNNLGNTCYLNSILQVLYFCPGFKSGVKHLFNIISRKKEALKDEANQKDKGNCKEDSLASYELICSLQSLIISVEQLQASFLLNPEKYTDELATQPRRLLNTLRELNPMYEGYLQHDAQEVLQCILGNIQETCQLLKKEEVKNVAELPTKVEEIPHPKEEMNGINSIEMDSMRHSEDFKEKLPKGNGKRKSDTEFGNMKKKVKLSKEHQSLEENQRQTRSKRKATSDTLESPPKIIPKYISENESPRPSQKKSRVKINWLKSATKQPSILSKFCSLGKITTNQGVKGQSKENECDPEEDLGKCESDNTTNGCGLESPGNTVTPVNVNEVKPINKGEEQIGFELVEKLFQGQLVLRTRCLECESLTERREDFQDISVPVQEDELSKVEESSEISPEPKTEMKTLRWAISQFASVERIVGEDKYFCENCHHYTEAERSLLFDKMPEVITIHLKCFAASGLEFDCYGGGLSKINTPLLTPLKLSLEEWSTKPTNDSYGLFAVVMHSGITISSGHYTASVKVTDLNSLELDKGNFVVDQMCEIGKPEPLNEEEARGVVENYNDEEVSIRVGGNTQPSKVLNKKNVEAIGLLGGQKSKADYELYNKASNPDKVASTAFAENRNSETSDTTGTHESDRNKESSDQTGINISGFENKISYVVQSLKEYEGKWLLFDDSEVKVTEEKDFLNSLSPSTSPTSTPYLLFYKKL
# Summary of the method: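 USP1/UAF1 complex at 1 nM preincubated 15 min at room temperature with compound, then Ub-Rho substrate added at 150 nM final. Fluorescence (480/540 nm) read kinetically in 50 mM HEPES pH 7.8, 0.5 mM EDTA, 1 mM TCEP, 0.1 mg/ml BSA, 0.01% Tween-20.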
# [5] = target: 3',5'-cyclic-AMP phosphodiesterase 4B (Homo sapiens) (UniProt Q07343); assay: qHTS Assay for Inhibitors of PDE-IV (AID 607; active = well fitted activation curve with a large enough effect in the main read-out, with a control signal flat, not every such curve was filed as active; inconclusive = small, poorly fitted or top-dose-only effect, or effect the other way, or a change in a side signal; note: potency is the fitted concentration of half-maximal effect; for activation (PDE inhibition): % of control where 0% means no effect); settings: HEK293 ACTOne CNG channel cells, membrane potential fluorescence; activation (PDE inhibition): at 22.9 µM (top of the series)
# Sequence of UniProt Q07343 (Q07343 whole entry, looked up): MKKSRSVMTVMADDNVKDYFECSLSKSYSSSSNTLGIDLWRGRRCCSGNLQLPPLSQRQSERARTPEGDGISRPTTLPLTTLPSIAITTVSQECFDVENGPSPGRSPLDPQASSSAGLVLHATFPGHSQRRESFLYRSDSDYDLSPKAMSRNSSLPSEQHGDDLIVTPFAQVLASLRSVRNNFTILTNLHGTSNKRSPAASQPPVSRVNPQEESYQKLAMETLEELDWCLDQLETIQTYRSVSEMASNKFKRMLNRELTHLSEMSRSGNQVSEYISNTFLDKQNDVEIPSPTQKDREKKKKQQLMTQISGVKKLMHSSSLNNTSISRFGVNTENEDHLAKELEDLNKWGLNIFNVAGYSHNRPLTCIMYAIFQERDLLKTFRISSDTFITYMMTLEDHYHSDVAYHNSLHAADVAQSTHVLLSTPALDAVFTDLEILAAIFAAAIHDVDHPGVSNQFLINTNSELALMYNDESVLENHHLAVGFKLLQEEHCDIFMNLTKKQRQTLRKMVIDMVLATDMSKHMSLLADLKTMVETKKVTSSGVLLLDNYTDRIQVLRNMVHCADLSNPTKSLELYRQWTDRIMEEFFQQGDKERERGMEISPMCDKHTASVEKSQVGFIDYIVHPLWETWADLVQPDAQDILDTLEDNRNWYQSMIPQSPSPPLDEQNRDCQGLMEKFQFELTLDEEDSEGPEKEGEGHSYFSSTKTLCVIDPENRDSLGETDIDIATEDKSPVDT
# Summary of the method: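 Live HEK293 cells with a modified cyclic nucleotide-gated (CNG) channel report intracellular cAMP via membrane-potential dye fluorescence (ex 535/em 590 nm). Endogenous PDE-IV was targeted. Compounds were tested at up to 22.9 uM final; RO 20-1724 100 uM served as control.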
# [6] = qHTS Assay for Identification of Small Molecule Antagonists for NFkB Signaling Pathway (AID 895; active = well fitted inhibition curve with a large enough effect in the signal ratio, with a control signal flat, not every such curve was filed as active; inconclusive = small, poorly fitted or top-dose-only effect, or effect the other way, or a change in a side signal; the % refers to the signal ratio; note: % is set by controls: 0 for no effect and ±100 for the full control effect); settings: NFkB beta-lactamase reporter cells, FRET ratio 460/530, stimulated with 10 pM TNF alpha; activity change, negative = inhibition: at 38.3 µM (top of the series)
# Summary of the method: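 ME-180 NFkB-bla cells (beta-lactamase under NFkB response element), plated overnight, treated with compound then 10 pM TNF alpha (about EC50) for 5 hrs at 37 C. LiveBLAzer FRET read at 460/530 nm emission, 405 nm excitation.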
# [7] = qHTS Assay for Identification of Small Molecule Antagonists for Thrombopoietin (TPO) Signaling Pathway (AID 918; active = well fitted curve in the direction sought with a large enough effect; inconclusive = small, poorly fitted or top-dose-only effect, or another doubt; inactive = no such curve, though single readings can be large; an effect the other way counts as inactive or inconclusive; note: nearly all actives have a fitted effect of over 60% in size); settings: TPO-dependent cell signaling reporter, antagonist mode; activity change, negative = inhibition: at 38.5 µM (top of the series)
# Summary of the method: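 Luminescence read-out: GPIIb-promoter luciferase in Ba/F3 cells carrying human TPO receptor. Compounds added with 26 pM TPO (EC50), 24 hrs, 37 C, 5% CO2; cells deprived of IL-3 overnight beforehand. Inhibition of signal scored.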
# [8] = target: Cytochrome P450 2C9 (Homo sapiens) (UniProt P11712); assay: qHTS Assay for Inhibitors and Substrates of Cytochrome P450 2C9 (AID 883; active = well fitted curve in the direction sought with a large enough effect; inconclusive = small, poorly fitted or top-dose-only effect, or another doubt; inactive = no such curve, though single readings can be large; an effect the other way counts as inactive or inconclusive; note: potency is the fitted concentration of half-maximal effect; nearly all actives have a fitted effect of over 60% in size); settings: recombinant CYP2C9, luciferin-H luminescence, 60 min; activity change, negative = inhibition: at 57.1 µM (top of the series)
# Sequence of UniProt P11712 (P11712 whole entry, looked up): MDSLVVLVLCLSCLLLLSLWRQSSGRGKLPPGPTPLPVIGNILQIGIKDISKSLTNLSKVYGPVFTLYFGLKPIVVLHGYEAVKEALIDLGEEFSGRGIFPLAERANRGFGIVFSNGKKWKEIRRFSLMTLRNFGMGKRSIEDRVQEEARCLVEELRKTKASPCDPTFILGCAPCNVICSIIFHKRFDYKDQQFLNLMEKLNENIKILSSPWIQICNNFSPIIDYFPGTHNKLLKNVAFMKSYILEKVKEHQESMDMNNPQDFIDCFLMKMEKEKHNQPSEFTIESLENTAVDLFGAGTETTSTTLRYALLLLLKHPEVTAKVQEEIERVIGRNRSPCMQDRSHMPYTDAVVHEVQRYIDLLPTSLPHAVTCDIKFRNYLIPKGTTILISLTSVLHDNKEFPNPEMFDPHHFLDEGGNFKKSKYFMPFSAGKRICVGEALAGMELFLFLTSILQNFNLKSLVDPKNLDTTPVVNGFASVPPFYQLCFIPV
# Summary of the method: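 Signal: luciferase luminescence reporting luciferin produced by CYP2C9. Conditions: 10nM enzyme, Luciferin-H 100uM at KM, 25mM KPO4, 37C, 60 min NADPH-driven reaction. Reference: 57uM sulphaphenazole as 100% inhibition.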
# [9] = target: Cytochrome P450 2D6 (Homo sapiens) (UniProt P10635); assay: qHTS Assay for Inhibitors and Substrates of Cytochrome P450 2D6 (AID 891; active = well fitted curve in the direction sought with a large enough effect; inconclusive = small, poorly fitted or top-dose-only effect, or another doubt; inactive = no such curve, though single readings can be large; an effect the other way counts as inactive or inconclusive;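 note: luciferin methyl ether substrate demethylated by CYP2D6 with NADPH regeneration; potency is the fitted concentration of half-maximal effect; nearly all actives have a fitted effect of over 60% in size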); settings: recombinant CYP2D6, luciferin-ME EGE luminescence; activity change, negative = inhibition: at 57.1 µM (top of the series)
# Sequence of UniProt P10635 (P10635 whole entry, looked up): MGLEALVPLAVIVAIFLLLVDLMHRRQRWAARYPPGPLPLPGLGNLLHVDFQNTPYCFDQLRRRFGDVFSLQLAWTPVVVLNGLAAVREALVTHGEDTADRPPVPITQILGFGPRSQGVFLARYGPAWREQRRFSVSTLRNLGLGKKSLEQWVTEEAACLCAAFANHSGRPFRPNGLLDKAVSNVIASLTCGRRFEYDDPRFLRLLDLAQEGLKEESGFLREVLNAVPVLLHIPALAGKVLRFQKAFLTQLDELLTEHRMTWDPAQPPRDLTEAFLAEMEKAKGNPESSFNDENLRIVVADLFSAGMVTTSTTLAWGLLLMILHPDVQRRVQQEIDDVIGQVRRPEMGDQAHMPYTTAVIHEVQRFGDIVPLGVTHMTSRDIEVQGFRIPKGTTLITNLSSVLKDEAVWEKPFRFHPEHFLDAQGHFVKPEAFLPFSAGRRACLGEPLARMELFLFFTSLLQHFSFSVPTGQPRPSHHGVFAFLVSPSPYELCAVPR
# Summary of the method: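 Luminescent read-out of luciferin formed by 5 nM human CYP2D6 demethylating 30 uM Luciferin-ME EGE (Km level) over 60 min at room temperature after NADPH regeneration addition. Data normalized to full inhibition by 1.43 uM quinidine.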
# [10] = target: Cytochrome P450 2C19 (Homo sapiens) (UniProt P33261); assay: qHTS Assay for Inhibitors and Substrates of Cytochrome P450 2C19 (AID 899; active = well fitted curve in the direction sought with a large enough effect; inconclusive = small, poorly fitted or top-dose-only effect, or another doubt; inactive = no such curve, though single readings can be large; an effect the other way counts as inactive or inconclusive; note: potency is the fitted concentration of half-maximal effect; nearly all actives have a fitted effect of over 60% in size)
# Sequence of UniProt P33261 (P33261 whole entry, looked up): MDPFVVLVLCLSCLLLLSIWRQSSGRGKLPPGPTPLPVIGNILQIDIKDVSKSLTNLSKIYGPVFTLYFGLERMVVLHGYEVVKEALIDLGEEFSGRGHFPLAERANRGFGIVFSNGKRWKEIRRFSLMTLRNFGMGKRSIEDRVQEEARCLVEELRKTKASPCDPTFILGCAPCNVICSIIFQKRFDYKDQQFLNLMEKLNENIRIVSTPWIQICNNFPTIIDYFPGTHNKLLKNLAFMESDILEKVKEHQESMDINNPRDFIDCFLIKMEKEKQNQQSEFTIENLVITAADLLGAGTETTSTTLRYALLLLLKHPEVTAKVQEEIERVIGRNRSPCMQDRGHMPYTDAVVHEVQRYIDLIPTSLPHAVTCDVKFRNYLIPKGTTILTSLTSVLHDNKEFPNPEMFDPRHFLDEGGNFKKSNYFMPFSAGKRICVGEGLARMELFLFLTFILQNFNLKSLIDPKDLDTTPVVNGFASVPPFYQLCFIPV
# Summary of the method: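 Signal comes from luciferase acting on luciferin released by CYP2C19-mediated hydroxylation of Luciferin-H EGE, 10uM (KM). Assay mix: 5nM enzyme, 50mM KPO4; 60 min at 37C with NADPH regeneration. Data normalized against 57uM ketoconazole.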
# Tags give direction and shape of the fitted curve or compound fluorescence and quenching.
structure (smiles),measurement,setting,value
CC1(C)N=C(N)N=C(N)N1CCCCc1ccccc1,"activity change, negative = inhibition",[1],inconclusive: -61.6% [inhibitor] [at 7.69 µM]
same,"activity change, negative = inhibition",[2],inactive: 2.64% [at 11.4 µM]
CO[C@@]12C[C@@H](COC(=O)c3cncc(Br)c3)CN(C)[C@H]1Cc1cn(C)c3cccc2c13,"activity change, negative = inhibition",[1],inconclusive: -35.3% [inhibitor]
same,Potency,[2],active: 3.16 µM
same,Potency,[3],"inconclusive: 3.98 µM [inhibitor, partial curve]"
same,Potency,[4],"inconclusive: 39.8 µM [inhibitor, partial curve, poor fit]"
COc1ccc(CNc2nc(-c3ccoc3)nc3ccccc23)c(OC)c1,"activity change, negative = inhibition",[1],inactive: -8.73% [at 7.69 µM]
same,Potency,[2],inactive
same,Potency,[4],"inconclusive: 100 µM [inhibitor, partial curve, poor fit]"
CC(C)NC(=O)N1CCCC2(CCN(C(=O)c3csnn3)CC2)C1,"activity change, negative = inhibition",[1],inactive: -7.86% [at 7.69 µM]
same,Potency,[2],inactive
C/C(=N/NC(=O)c1ccncc1)c1ccccc1Cl,"activity change, negative = inhibition",[1],inactive: 8.3% [at 7.69 µM]
same,"activity change, negative = inhibition",[2],inactive: -2.36% [at 11.4 µM]
CC(=O)O[C@@H]1[C@H]([N+]2(C)CCCCC2)C[C@@H]2[C@@H]3CC[C@@H]4C[C@@H](OC(C)=O)[C@H]([N+]5(C)CCCCC5)C[C@@]4(C)[C@H]3CC[C@]21C,"activity change, negative = inhibition",[1],inconclusive: -63.1% [inhibitor] [at 38 µM]
same,Potency,[2],inactive
same,Potency,[5],inactive
same,Potency,[6],inactive
same,"activity change, negative = inhibition",[7],inconclusive: -7.73% [phenotype inactive]
O=S(=O)(c1ccc2ccccc2c1)N1CCN(S(=O)(=O)c2ccc3ccccc3c2)CC1,"activity change, negative = inhibition",[1],inactive: -5.78% [at 7.69 µM]
same,"activity change, negative = inhibition",[2],inactive: -2.59% [at 11.4 µM]
same,Potency,[5],inactive
COc1ccc(C(=O)N2CCC3(CC2)CN(CC(C)C)C3)cc1,"activity change, negative = inhibition",[1],inconclusive: -43.6% [inhibitor] [at 7.69 µM]
same,Potency,[2],inactive
COCCOC(=O)C1=C(C)NC(C)=C(C(=O)OC(C)C)[C@H]1c1cccc([N+](=O)[O-])c1,"activity change, negative = inhibition",[1],inactive: -10.3%
same,activation,[3],inconclusive: -12.3%
same,Potency,[4],inactive
Cc1ccc2ccccc2c1CSc1nc(N)nc2c1ncn2CC(C)C,"activity change, negative = inhibition",[1],inconclusive: -33.7% [inhibitor] [at 7.69 µM]
same,"activity change, negative = inhibition",[2],inactive: -1.99% [at 11.4 µM]
same,Potency,[5],inactive
same,Potency,[8],"inconclusive: 7.94 µM [inhibitor, single point]"
same,Potency,[3],"inconclusive: 2 µM [inhibitor, single point]"
CCCc1cc(COC)c(C#N)c(=O)[nH]1,"activity change, negative = inhibition",[1],inactive: -2.55% [at 7.69 µM]
same,"activity change, negative = inhibition",[2],inactive: 2.82% [at 11.4 µM]
O=C(O)c1ccc(C(=O)c2ccccc2C(=O)O)cc1C(=O)O,"activity change, negative = inhibition",[1],inactive: 20.9% [at 7.69 µM]
same,Potency,[5],inactive
O=C(O)[C@H](Cc1cc(I)c(O)c(I)c1)C1CCCCC1,"activity change, negative = inhibition",[1],inactive: 1.46% [at 7.69 µM]
same,"activity change, negative = inhibition",[2],inactive: -1.24% [at 11.4 µM]
same,Potency,[8],"inconclusive: 3.16 µM [inhibitor, partial curve]"
same,Potency,[3],"inconclusive: 3.98 µM [inhibitor, single point]"
Oc1c(CN2CCN(c3ccccc3)CC2)cc(Br)c2cccnc12,"activity change, negative = inhibition",[1],inconclusive: -76.8% [inhibitor] [at 7.69 µM]
same,"activity change, negative = inhibition",[2],inactive: -6.25% [at 11.4 µM]
same,Potency,[9],"inconclusive: 3.98 µM [inhibitor, partial curve]"
same,Potency,[10],"inconclusive: 3.98 µM [inhibitor, single point]"
same,Potency,[3],"inconclusive: 1 µM [cytotoxic, side channel]"
O=C(c1ccncc1)N1CCC2(CCCN(Cc3ccncc3)C2)CC1,"activity change, negative = inhibition",[1],inconclusive: -64.3% [inhibitor] [at 7.69 µM]
same,Potency,[2],inactive
same,activation,[3],inactive: 2.4%
Cn1c(=O)c(-c2ccc(F)cc2)nc2cnc(Nc3ccccc3)nc21,"activity change, negative = inhibition",[1],inactive: -9.42% [at 7.69 µM]
same,Potency,[5],"inconclusive: 15.8 µM [activator, single point]"
CC(=O)N1CCC2(CC1)CN(c1ccccn1)C2,"activity change, negative = inhibition",[1],inactive: 6.27% [at 7.69 µM]
same,Potency,[2],"inconclusive: 0.0316 µM [activator, full curve, poor fit]"
same,Potency,[3],"inconclusive: 3.16 µM [activator, single point]"
CC(=O)N1CCC2(CCN(Cc3ccccc3)CC2)CC1,"activity change, negative = inhibition",[1],inconclusive: -48.5% [inhibitor] [at 7.69 µM]
same,Potency,[5],inactive

# From PubChem BioAssay (NCATS)
